In article PMC12040169 (PLOS Biology, 2025):
Some of the results follow.

Each compound was assayed on T1, C. trachomatis L2/434/Bu expressing GFP (CTL2-GFP). Conditions: total inclusion area; 28.5 h, 10 µM; inhibitor.
T1 construct: L2/434/Bu GFP intracellular growth in HeLa cells
Design: species or system HeLa; C. trachomatis total inclusion area by high-content imaging, normalised to DMSO
Outline: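 High-content images of fixed, Hoechst-stained infected cultures supply inclusion area and count (growth) plus nuclei number (viability), complementing bulk GFP/resorufin fluorescence. MIC determination is unchanged from the primary assay.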

SMILES	% of control remaining
CCn1cc(CN2CCCN(C(=O)c3cc(C)on3)CC2)cn1 [CBK306145]	54.4304
C=CCOc1ccccc1CNc1nc[nH]n1 [CBK267234]	97.6974
COc1cc(C=CC(=O)O)cc(S(=O)(=O)Nc2ccccc2C(=O)NCCc2ccccc2)c1OC [CBK297487]	68.2788
COc1cccc(C(=O)Nc2nn(Cc3ccc(C(F)(F)F)cc3)c3ccccc23)c1 [CBK048273]	90.1873
COc1ccc(S(=O)(=O)NCCSCc2cccc(C)c2)cc1Cl [CBK268477]	77.6218
Cc1cc(OCC(O)CN2CCN(Cc3ccc4c(c3)OCO4)CC2)cc(C)c1Cl (centres unmarked) [CBK074374]	88.4628
O=C1CSC(c2cccnc2)N1CCc1ccccn1 (centres unmarked) [CBK017292]	83.0035
COc1cc(OC)cc(-c2[nH][nH]c(=O)c2CCN)c1 [CBK288414]	125.667
CC(C)(C)NC(=O)CNS(=O)(=O)c1ccccc1 [CBK265807]	96.8084
O=C(Nc1cccc(N2CCCC2)c1)c1cc(C2CC2)on1 [CBK283139]	87.6318
N#Cc1ccc(NC(=O)CC2(CC(=O)O)CCCC2)cc1 [CBK286979]	128.082
O=C(Cn1cnc2c(c1=O)CCCC2)Nc1ccc(Cl)c(Cl)c1 [CBK304655]	89.979
O=C(O)C1(NCc2ccccc2Cl)CCCCC1 [CBK287269]	113.318
O=C(O)CN1C(=O)C(=Cc2ccc(-c3ccc(Br)cc3)o2)SC1=S [CBK296075]	104.84
COc1ccccc1N1CC(C(=O)Nc2ccc(C(=O)O)cc2)CC1=O (centres unmarked) [CBK269606]	95.2517
COc1ccc(CC(=O)N2CCC(c3cc4cnccc4[nH]3)CC2)cc1 [CBK283451]	75.5706
O=c1ccc2c(-c3cccc(C(F)(F)F)c3)ccnc2[nH]1 [CBK073733]	107.36
O=C(Cn1nc2n(c1=O)CCCCC2)NCc1ccccc1Cl [CBK304642]	64.0295
CCn1c2cc(C)sc2c2cnn(CC(=O)N(C)C)c(=O)c21 [CBK284173]	93.4111
COC1CCC(C(=O)Nc2cnc(-c3ccc(F)c(Cl)c3)c(-c3ccc(C(C)=O)s3)n2)CC1 (centres unmarked) [CBK036718]	116.44
COC(=O)c1cc(-c2c[nH]c3ccccc23)n[nH]1 [CBK241010]	107.605
CCN1CCN(C(=O)COc2cccnc2)CC1 [CBK200378]	113.413
Clc1ccccc1-c1nccnc1NCc1ccncc1 [CBK037472]	101.874
CC(C)c1ccc(NC(=O)CSc2n[nH]c(=O)n2-c2ccccc2)cc1 [CBK299826]	115.725
O=C(CSC1=NCCS1)Nc1ccc(Cl)cn1 [CBK057917]	84.1105
CN1CCN(C(=O)c2ccc(-c3cnc4[nH]c(=O)n(Cc5ccncc5)c4n3)cc2)CC1 [CBK064679]	141.347
CC(C)C(C(=O)Nc1ccc(S(=O)(=O)N2CCOCC2)cc1)N1C(=O)c2ccccc2C1=O (centres unmarked) [CBK265607]	88.9317

SMILES	% of control remaining
CCOCCCC(=O)N1CCN(Cc2nnc3n2CCCCC3)CC1 [CBK305298]	81.9487
CN(C)CCC1CCCCN1C(=O)[C@@H]1C[C@@H]2C=C[C@H]1C2 (some centres unmarked) [CBK282054]	115.827
CC(C)[C@@H](CO)Nc1nc(-c2cccnc2)cn2ccnc12 [CBK037539]	81.8626
COc1ccc(NC(=O)CSc2cnn[nH]2)c(OC)c1 [CBK269969]	89.4458
O=C(Nc1c(F)cc(F)cc1OC1CCNCC1)c1ccccn1 [CBK050274T]	84.7722
OC1(C(F)(F)F)C=C(c2cccs2)ON1 (centres unmarked) [CBK006243]	80.2358
CC(C)(C)OC(=O)N[C@@H](Cc1ccccc1)CN(Cc1ccccc1)Cc1ccc(S(=O)(=O)N2CCOC2=O)cc1 [CBK028952]	68.6329
CC(=O)N1Cc2cc(C)ccc2OC2(CCN(CC3CC3)CC2)C1 [CBK285021]	104.41
O=C(Nc1ccc(S(=O)(=O)Nc2cncs2)cc1)c1ccc(-c2cccc(C(F)(F)F)c2)o1 [CBK266625]	54.3278
COC(=O)[C@H]1CN(C(=O)Cc2ccccn2)C[C@@H]1c1ccc(F)cc1 [CBK283519]	102.913
Cc1cc(C)c(OCC(=O)Nc2cccc(-c3nc4cc(C(C)C)ccc4o3)c2)c([N+](=O)[O-])c1 [CBK264680]	94.614
CN1C(=O)/C(=C2\SC(=S)N(C(CCC(=O)O)C(=O)O)C2=O)c2ccccc21 (centres unmarked) [CBK261010]	94.7279
CSCCN1CCC(C(=O)c2ccc(F)cc2)CC1 [CBK149145]	107.029
O=C1CC2(CCN(C(=O)C3CCOC3)CC2)Oc2c(Br)cc(Br)cc21 (centres unmarked) [CBK156512]	94.5083
O=C(c1cnc2cc(Cl)ccc2c1O)N1CCN(c2ncccn2)CC1 [CBK107358]	97.2505
CCOc1ccc(Nc2nc(-c3ccc(C)cc3C)c(CC(=O)O)s2)cc1 [CBK264187]	10.5592
Cc1ccc(S(=O)(=O)NC(C)(C)CSc2nnc(N)s2)cc1 [CBK266350]	123.469
Cn1c(CN2CCN(c3ccc(C#N)cc3)CC2)nnc1[C@H]1C[C@@H](N)C1 [CBK306985]	100.419
O=C(C1CC1)N1CC(n2nc(-c3cccs3)ccc2=O)C1 [CBK284650]	52.5658
CCCC/C=C/c1cncc(NCCc2c[nH]c3ccccc23)n1 [CBK066081]	83.7235
CCC1c2ccc(C)n2CCN1C(=O)c1cc(-c2ccccn2)n[nH]1 (centres unmarked) [CBK283225]	102.354
CCC(CC)C(=O)N1C[C@H]2CCc3cn(CCNC(C)=O)nc3[C@H]2C1 [CBK282183]	84.7461
CN1CCN(C(=O)CN(c2ccccc2)S(=O)(=O)N(C)C)CC1 [CBK268079]	84.0214
c1ccc(CCCN2CCN(Cc3ccccc3)CC2)cc1 [CBK261878]	104.326
CC(C)(C)OC(=O)N1CCN(c2ccccc2O)CC1 [CBK003878]	98.703
CCCSc1nnc(NC(=O)c2nc(SC)ncc2Cl)s1 [CBK268759]	86.8353
Cc1cc(C)c(NC(=O)CSc2ncccc2-c2nc(C)no2)c(C)c1 [CBK287821]	100.084

SMILES	% of control remaining
CCOC(=O)CNC(=O)c1cc(Br)c(OC)c(OC)c1 [CBK058454]	32.7162
O=C(c1ccco1)N1CCN(c2cc(-c3cccc4cccnc34)ncn2)CC1 [CBK091117]	127.874
Cc1ccc([N+](=O)[O-])cc1NC1OCC(O)C(O)C1O (centres unmarked) [CBK262026]	108.546
CC(C)=NNC(=O)Nc1nonc1N [CBK027368]	78.9955
O=C(NC[C@H]1O[C@@H](CC(=O)N2CCCC2)[C@H](O)[C@@H]1O)c1ccccc1 [CBK288907]	84.3823
OCCOc1ccccc1OCCO [CBK260930]	98.2513
Cc1cccc(Nc2ncc(Cc3ccccc3C)s2)n1 [CBK287849]	96.6534
Cc1ccc(-c2c(C(=O)NNC(=S)NCc3ccco3)csc2C)cc1 [CBK266992]	89.6652
CNC(=O)[C@@H]1CN(Cc2ccccc2)C[C@H]1C(=O)c1ccc(F)cc1 [CBK282902]	97.2097
NC(=O)c1c(NC(=O)NCc2cccnc2)sc2c1CCC2 [CBK307578]	9.846
CC(C)[C@H](NS(=O)(=O)c1ccc(Cl)cc1)C(=O)NCc1ccc(Cn2cccn2)cc1 [CBK295611]	54.7931
CC(C)[C@H](CO)Nc1nccnc1-c1cccc(O)c1 [CBK037542]	73.2818
O=C(Nc1cccc(CCc2nc3ccccc3[nH]2)c1)c1ccc(Cn2cncn2)cc1 [CBK285648]	71.0913
O=C(NC(=S)Nc1cccc(-c2nc3ccccc3s2)c1)c1cc([N+](=O)[O-])ccc1N1CCOCC1 [CBK268789]	95.8188
COc1ccc(-c2cnc(NCC3CC3)c(C(=O)NCc3ccco3)c2)cc1 [CBK076283]	54.4204
O=C(NCC1(O)CCSCC1)c1ccc2ccccc2n1 [CBK305211]	81.5512
CC1Cc2cc(C(O)(CCN(C)C)c3ccccc3)ccc2O1 (centres unmarked) [CBK011764]	45.7975
CNC(=O)C1(Cc2cccc(-c3cccs3)c2)CCN(C(=O)Cc2ccccc2)CC1 [CBK285745]	123.759
O=C(O)CCCN1C(=O)/C(=C/c2c[nH]c3ccccc23)SC1=S [CBK262580]	85.3206
CC(C)N(C(=O)Cn1c(-c2ccco2)cc2cccnc21)C(C)C [CBK282682]	90.1201
CN(C)CC1CCCN(C(=O)[C@@H]2C[C@@H]3C=C[C@H]2C3)C1 (some centres unmarked) [CBK282063]	104.02
Cc1cc(=O)n2ncn(CC(=O)NCCOc3ccccc3)c2c1 [CBK305823]	72.7423
O=C(CN1CCC(Cc2ccccc2)CC1)Nc1ccc(S(=O)(=O)N2CCOCC2)cc1 [CBK268451]	112.162
Cc1nn2c(O)c3c(nc2c1-c1cccs1)CCC3 [CBK283729]	78.599
Cc1cc(C)nc(NC(=O)c2c(Cl)cccc2Cl)n1 [CBK058401]	91.8977
OCC(O)/C=N/Nc1nc(N2CCCCC2)nc(N2CCCCC2)n1 (centres unmarked) [CBK019423]	73.6907
